Data: PubChem BioAssay AID1159614 (National Center for Advancing Translational Sciences (NCATS), 2016)
Out of some 45,000 compounds screened, about 65 (0.1%) were called active. The call rests on the fitted dose curve; in most records, active means well fitted activation curve with a large enough effect; inconclusive means small, poorly fitted or top-dose-only effect; inactive means no such curve, though single readings can be large or run the other way. This is one part of the list.

Each molecule was assayed against Galactocerebrosidase (Homo sapiens) (UniProt P54803) (assay: A Novel Cell-Based Assay to Identify Small Molecules for B -Galactocerebrosidase). Settings: 145M-Twi-hGALC-G270D cells, HMU-beta-Gal fluorescence, 48 h; series mostly up to 57.5 µM; activation: at the top concentration.
UniProt P54803, sequence (P54803 whole entry, looked up): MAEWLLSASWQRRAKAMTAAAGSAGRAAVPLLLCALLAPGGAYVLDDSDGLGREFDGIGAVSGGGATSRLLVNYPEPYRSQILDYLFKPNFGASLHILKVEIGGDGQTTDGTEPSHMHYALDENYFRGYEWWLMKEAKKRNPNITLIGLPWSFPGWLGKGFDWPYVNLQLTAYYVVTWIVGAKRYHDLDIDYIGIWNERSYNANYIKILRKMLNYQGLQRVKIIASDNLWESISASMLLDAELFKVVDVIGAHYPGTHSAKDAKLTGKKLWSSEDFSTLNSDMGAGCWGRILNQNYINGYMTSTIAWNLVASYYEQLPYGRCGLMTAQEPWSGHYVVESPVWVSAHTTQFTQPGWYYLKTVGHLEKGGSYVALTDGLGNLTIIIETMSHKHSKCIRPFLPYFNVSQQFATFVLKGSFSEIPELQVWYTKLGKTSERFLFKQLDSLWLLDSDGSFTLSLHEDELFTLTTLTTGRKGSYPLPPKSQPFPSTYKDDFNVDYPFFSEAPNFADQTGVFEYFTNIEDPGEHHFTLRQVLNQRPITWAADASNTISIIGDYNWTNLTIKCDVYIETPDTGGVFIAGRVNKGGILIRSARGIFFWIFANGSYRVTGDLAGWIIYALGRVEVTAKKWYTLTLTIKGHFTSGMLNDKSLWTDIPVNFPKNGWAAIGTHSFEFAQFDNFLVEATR
Outline: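 qHTS, 1536-well; 145M-Twi-hGALC-G270D cells (WT line also made) in DMEM/F12 + 10% FBS; compound incubation on live cells; HMU-β-gal 0.1 mM final, pH 5.2, NaTC; carbonate stop; fluorescence increase = enhanced residual activity.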
Further: 0% is about no effect; nearly all actives have a fitted effect of over 65% in size.

activation, inactive:
Oc1c(C(c2ccccc2F)N2CCOCC2)sc2nc(-c3ccco3)nn12 (configuration not stated) -11.8%
CCOC(=O)C1CCN(c2c(C(=O)c3ccc(OCC)cc3)cnc3ccc(OC)cc23)CC1 -23.9%
Cc1cccc(NC(=O)c2oc3c(c2C)-c2[nH]ncc2CC3)c1C -1.08%
COc1ccc(CCNc2nc(-c3ccc(C)cc3)cc(C(F)F)n2)cc1OC -20.2%
CCOC(=O)c1cccc(NC(=O)CC(c2cc(OC)c(OC)c(OC)c2)N2Cc3ccccc3C2=O)c1 (configuration not stated) -17.6%
CCc1nn2c(-c3ccccc3OC)ccnc2c1-c1ccc(F)cc1 6.94%
CCn1c(=NC(=O)c2ccc(S(=O)(=O)N3CCCCC3)cc2)sc2cccc(OC)c21 -15.1%
CCOc1ccc(NC(=O)CN2CCN(Cc3ccccc3)S2(=O)=O)cc1 -3.05%
CCN(c1ccccc1)S(=O)(=O)c1ccc2[nH]cc(C(=O)NC3CCCCC3)c(=O)c2c1 -39.9%
Cc1nc2c(C(=O)NCc3ccccc3Cl)c[nH]n2c(=O)c1Cc1cccc(Cl)c1 -6.06%
Cc1c(Cl)cccc1NC(=O)CC(c1cccs1)N1Cc2ccccc2C1=O (configuration not stated) -35.5%
CC(NC(=O)CSc1n[nH]c(-c2ccccc2Cl)n1)c1nc2ccccc2n1C (configuration not stated) 4.43%
CCCCNC(=O)C1CCN(C(=O)N2CC(C)Oc3ccc(Cl)cc32)CC1 (configuration not stated) -6.5%
CCOc1ccccc1-n1c(C)nc2cc(C(=O)O)ccc21 -22.5%
CCOC(=O)N1CCc2c(sc(NCc3sccc3C)c2C(=O)Nc2cc(OC)ccc2OC)C1 -24.5%
CCCCN(C)CCCNC(=O)CN1C(=O)COc2ccc(S(=O)(=O)N3CCC(C)CC3)cc21 -3.83%
Cc1cc(=O)[nH]c2nnc(SCc3ccc(Cl)c(Cl)c3)n12 -20.4%
COc1cccc(NC(=O)CSc2cc(=O)n(C)c3ccc(Cl)cc23)c1 -12.2%
Cn1cnc(S(=O)(=O)N2CCCC(C(=O)NCc3ccccc3Cl)C2)c1 (configuration not stated) -18%
N#C/C(=C\c1ccc(F)cc1)C(=O)NCC1CCCO1 (configuration not stated) -14.9%
Cc1ccc(CCNC(=O)C(CC(C)C)NS(=O)(=O)c2ccc3c(c2)oc(=O)n3C)cc1 (configuration not stated) -9.13%
Cc1cccc(C(=O)N2CCc3cc(CNC(=O)c4ccnn4C)ccc32)c1 -12.5%
CCOc1ccccc1NC(=O)CN1C(=O)COc2ccc(S(=O)(=O)N3CCCCCC3)cc21 -2.87%
CCOc1ccccc1NC(=O)Cc1coc2c(C)c(C)ccc12 -16.5%
O=C(COc1ccc(Cl)cc1)Nc1sc2c(c1C(=O)Nc1cccc(Cl)c1)CCCC2 -14.2%
CCOc1ccc(CC(=O)Nc2ccc3c(c2)N(C)C(=O)c2ccccc2S3)cc1OCC -8.62%
CCc1ccc(OCC(=O)N(Cc2ccc(C)cc2)Cc2ccco2)cc1 -5.97%
Cc1cccc(C)c1-n1ncc(C(=O)NCc2ccc3c(c2)OCO3)c1C1CCN(C(=O)OC(C)(C)C)CC1 24.5%
CCCN1C(=O)C(O)(CC(=O)c2ccc(CC)cc2)c2cc(Br)ccc21 (configuration not stated) -29.7%
Cc1cccc(OCC(=O)Nc2nonc2-c2ccc(Br)cc2)c1C -21.4%
CCCCN(C)CCCNC(=O)c1cc(=O)[nH]c2ccc(S(=O)(=O)N3CCCCC3)cc12 -12.1%
CC(=O)N1c2ccc(S(=O)(=O)NCC3CCC(C(=O)Nc4ccccc4C)CC3)cc2CC1C (configuration not stated) -19.4%
O=C(Nc1ccc(OC(F)(F)F)cc1)C1CCCN(S(=O)(=O)c2cccc3nonc23)C1 (configuration not stated) -12.6%
Cc1ccc(NC(=O)CCc2c(C)nc3c(-c4ccccc4)c(C)nn3c2C)c(C)c1 -16.5%
COc1ccc(-n2c(=O)c3ccccc3n(CC(=O)NCCc3ccccc3)c2=O)c(OC)c1 -24.7%
Cc1cccc(-n2cc(-c3ccccc3)c3c(NC(C)C)ncnc32)c1 7.41%
CC1CCN(S(=O)(=O)c2cn(CC(=O)Nc3ccc(F)c(Cl)c3)c(=O)c3ccccc23)CC1 -12.1%
CCC1=Nc2cc(C(=O)NC(C)c3ccccc3)ccc2Sc2ccc(Cl)cc21 (configuration not stated) -19%
COc1ccc2c(c1)CCc1sc(NC(=O)c3ccc(Cl)cc3)nc1-2 11.3%
COCCCNC(=O)CN1C(=O)COc2ccc(S(=O)(=O)N3CCCCCC3)cc21 -12.9%
COC(=O)c1ccccc1NC(=O)CN(c1ccccc1OC)S(C)(=O)=O 5.51%
Cc1ccc(NC(=O)CSc2nc(-c3ccc(F)cc3)nc3c2Cc2c(CO)cnc(C)c2O3)cc1C -10.7%
O=C(CSc1nccn1-c1cccc(Cl)c1)Nc1cccc(C(F)(F)F)c1 -6.92%
CN(Cc1ccccc1)C(=O)CCS(=O)(=O)c1cc(Br)cc2c1N(C(=O)C1CC1)CC2 -19.7%
CC(C)c1ccc(NC(=O)c2ccc(F)c(S(=O)(=O)N3CCCC3)c2)cc1 -15.3%
CC1CCN(C(=O)Cn2cc(SCc3ccccc3)c3ccccc32)CC1 -11.4%
O=C(COc1ccccc1F)Nc1ccccc1OCc1cc(=O)n2ccccc2n1 -0.325%
COc1ccccc1OCC(=O)Nc1nnc2n1CCS2 -28.3%
CCCc1nnc(N2C(=O)c3oc4ccc(F)cc4c(=O)c3C2c2ccc(C(=O)OC)cc2)s1 (configuration not stated) -16.9%
COc1cc2ccccc2cc1C(=O)N1CCN(c2nc3c(C)cc(C)cc3s2)CC1 -40%
CCOc1ccc(-n2cc(C(=O)Nc3ccccc3OCC)c3cc(OC)c(OC)cc3c2=O)cc1 -30.9%
CC1CCN(c2nnc(-n3cccc3CNc3cccc(F)c3)s2)CC1 -21.4%
O=C(C1CCC1)N1CCc2cc(S(=O)(=O)N3CCN(c4ccccc4)CC3)ccc21 -8.06%
CCc1ccccc1NC(=O)N1CCN(c2nnc(C)c3c(C)n(-c4ccccc4)nc23)CC1 -9.02%
CCOC(=O)c1c(NC(=O)CS(=O)(=O)c2ccc(C)cc2)sc2c1CCC(C)C2 (configuration not stated) -19.2%
CC1CCN(C(=O)Cn2cc(SCc3cccc(F)c3)c3ccccc32)CC1 -11.7%
Cc1ccc2nc(-c3ccccc3O)c(Nc3ccccc3C)n2c1 -25.3%
CCC(C(=O)OCCN1CCOC(c2ccccc2)C1C)c1ccccc1 (configuration not stated) -16.9%
Cc1cccc(NC(=O)C2CCN(S(=O)(=O)c3cccc4nsnc34)CC2)c1 -3.72%
CCC(C)NC(=O)Cn1c(=O)n(CC2CCC(C(=O)NC)CC2)c(=O)c2sccc21 (configuration not stated) -7.15%
CCOc1ccccc1NC(=O)N1CCc2c(sc3c2CCCC3)C1c1ccccc1 (configuration not stated) -19.9%
CCOc1ccccc1C(=O)N1CC(=O)Nc2ccc(C)cc2C1c1ccccc1 (configuration not stated) -10.3%
Cc1ccc(CN2c3ccccc3-c3nc(SCC(=O)Nc4c(C)cc(C)cc4C)ncc3S2(=O)=O)cc1 -10.1%
COc1ccc(NC(=O)Nc2cc(-c3cn4cccnc4n3)ccc2OC)cc1 15.7%
Brc1ccc2c(c1)NC(c1cccnc1)=NC(c1ccccc1)=N2 -18%
O=C(OCc1ccccc1Cl)c1ccc(-c2nnn(Cc3ccc(F)cc3)n2)cc1 -9.62%
Cc1nn2c(=O)cc(COc3ccc(/C=C(\C#N)C(=O)Nc4ccccc4)cc3Cl)nc2s1 -4.27%
CCC(=O)Nc1ccc(CC)cc1-c1nc2ccccc2n(CC(=O)Nc2ccccc2C)c1=O -12.5%
Cc1ccc(NC(=O)Cn2c(=O)oc3cc(S(=O)(=O)N4CCCCC4)ccc32)c(C)c1 -33.2%
COc1ccc(-c2onc(C)c2C)cc1S(=O)(=O)Nc1cc(Cl)ccc1C -3.08%
COc1ccc(-c2cc3nc(C)c(CCC(=O)N4CCN(c5ccccc5F)CC4)c(C)n3n2)c(OC)c1 -31.7%
O=C(CSc1nc2ccccc2nc1Cc1ccccc1F)Nc1cccc(C(F)(F)F)c1 -6.5%
Cc1ccc(CNc2ncnc3onc(C)c23)cc1 -26.5%
CCN(CC)c1ccc(NC(=O)CCS(=O)(=O)c2ccc3c(c2)oc(=O)n3C)c(C)c1 -16.7%
COC(=O)c1ccccc1NC(=O)c1cc(CN2CCOCC2)on1 -22.2%
CCOc1cc(C(=O)NCc2nc(-c3cccc(C)c3)no2)cc(OCC)c1OCC -21.4%
CCc1cccc(C)c1Nc1c(-c2cccs2)nc2nc(C)cc(C)n12 -17.8%
CCc1ccccc1NC(=O)CSc1nnc(COc2ccccc2Cl)o1 -18.4%
Cc1cn2c(=O)cc(COC(=O)c3ccc(NC(=O)COc4ccc(C)c(C)c4)cc3)nc2s1 -7.17%
COc1cc(C(=O)Nc2ccc(-c3nc4ccccc4o3)c(O)c2)cc(OC)c1OC 3.89%
COc1cc2c(cc1OC)C(COc1ccc(F)cc1)N(C(=O)Cc1ccccc1)CC2 (configuration not stated) -16.4%
CCOc1ccc(-c2cc(C(=O)NCCCOC)c3c(-c4ccc(CC)cc4)[nH]nc3n2)cc1 3.42%
CCCOc1ccc(C2c3c(-c4ccccc4O)n[nH]c3C(=O)N2Cc2cccnc2)cc1 (configuration not stated) -19.9%
CC(C)OCCCn1c(=O)c2ccccc2n2c(-c3cc(Cl)ccc3O)nnc12 -8.85%
Cc1ccc(Cn2c(CNC(=O)Cc3cccc([N+](=O)[O-])c3)nc3cccnc32)cc1 3.44%
COc1ccc(-c2nc3ccccc3s2)cc1NC(=O)c1cccc([N+](=O)[O-])c1C -9.02%
CCn1c(=N)c(C(=O)NCC2CCCO2)cc2c(=O)n3cc(C)ccc3nc21 (configuration not stated) -9.97%
O=S(=O)(NCC(c1ccccc1)N1CCc2ccccc21)c1ccccc1 (configuration not stated) -2.29%
O=c1c2ccccc2n(Cc2c(F)cccc2Cl)c(=O)n1Cc1ccccc1 10.7%
COCc1nc2ccccc2n1Cc1cccc(C)c1 -15.5%
CCn1c(=O)c2sccc2n2c(CCC(=O)Nc3ccc(OC)cc3OC)nnc12 -10.7%
CCc1ccccc1NC(=O)CN1C(=O)c2cccnc2Sc2ccccc21 4.81%
CCCCOc1ccc(CNC(=O)C2CCCN(c3nnc(-n4c(C)ccc4C)s3)C2)cc1 (configuration not stated) -5.21%
COc1cc(C(=O)N2CCC(c3nc4ccccc4s3)CC2)cc(OC)c1OC -18.1%
COc1ccc(C2=C(C)C(=NCc3ccc(OC(C)C)cc3)NS2(=O)=O)cc1 -20%
Cc1ccc2c(c1)sc1nc(=O)n(-c3ccc(Cl)c(Cl)c3)c(=O)n12 -18.2%
CCc1ccc(-c2cc(C)no2)cc1S(=O)(=O)Nc1cc(OC)c(OC)c(OC)c1 -12.1%
